Data from patent US20240269277A1 (Hoffmann-La Roche, published 2024).

T1: IL-7 receptor (IL-7Ra/common gamma chain) on activated CD4 T cells (human, UniProt P16871 21-459; P31785 23-369)
T1 sequence (looked up) 1: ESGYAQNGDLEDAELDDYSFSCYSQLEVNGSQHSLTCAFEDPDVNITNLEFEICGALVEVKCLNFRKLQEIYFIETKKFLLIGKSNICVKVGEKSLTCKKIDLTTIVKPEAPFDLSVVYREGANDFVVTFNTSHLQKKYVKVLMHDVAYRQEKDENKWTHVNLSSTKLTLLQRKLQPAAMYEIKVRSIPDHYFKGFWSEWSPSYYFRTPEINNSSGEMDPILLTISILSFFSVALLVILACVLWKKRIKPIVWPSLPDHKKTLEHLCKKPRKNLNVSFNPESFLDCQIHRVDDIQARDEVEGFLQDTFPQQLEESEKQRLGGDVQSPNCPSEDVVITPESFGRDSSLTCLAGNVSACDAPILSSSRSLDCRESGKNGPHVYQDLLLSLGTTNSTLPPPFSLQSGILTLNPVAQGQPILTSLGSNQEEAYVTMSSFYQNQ
T1 sequence (looked up) 2: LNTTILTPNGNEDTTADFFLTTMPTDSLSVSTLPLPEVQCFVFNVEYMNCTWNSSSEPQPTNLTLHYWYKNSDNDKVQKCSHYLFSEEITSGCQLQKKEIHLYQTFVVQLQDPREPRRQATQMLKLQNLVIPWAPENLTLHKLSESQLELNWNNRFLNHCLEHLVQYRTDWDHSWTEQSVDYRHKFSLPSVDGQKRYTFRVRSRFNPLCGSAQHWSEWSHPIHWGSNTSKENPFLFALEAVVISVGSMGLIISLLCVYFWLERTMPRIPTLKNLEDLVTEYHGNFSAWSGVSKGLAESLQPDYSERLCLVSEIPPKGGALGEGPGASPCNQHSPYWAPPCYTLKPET

B1: PD1(alt)-IL7-VAR18/VAR21 (other)
light: DIVLTQSPASLAVSLGQRAAISCRASKGVSTSGYSYLHWYQQKPGQSPKLLIYLASYLESGVPARFSGSGSGTDFTLNIHPVEEEDAATYYCQHSRDLPLTFGTGTKLELKRTVAAPSVFIFPPSDEQLKSGTASVVCLLNNFYPREAKVQWKVDNALQSGNSQESVTEQDSKDSTYSLSSTLTLSKADYEKHKVYACEVTHQGLSSPVTKSFNRGEC
heavy 1: QVQLQQPGAELVKPGTSVKLSCKASGYTFTNYYMYWVKQRPGQGLEWIGGINPSNGGTNFNEKFKNKATLTVDSSSSTTYMQLSSLTSEDSAVYYCTRRDYRFDMGFDYWGQGTTLTVSSASTKGPSVFPLAPSSKSTSGGTAALGCLVKDYFPEPVTVSWNSGALTSGVHTFPAVLQSSGLYSLSSVVTVPSSSLGTQTYICNVNHKPSNTKVDKKVEPKSCDKTHTCPPCPAPEAAGGPSVFLFPPKPKDTLMISRTPEVTCVVVDVSHEDPEVKFNWYVDGVEVHNAKTKPREEQYNSTYRVVSVLTVLHQDWLNGKEYKCKVSNKALGAPIEKTISKAKGQPREPQVCTLPPSRDELTKNQVSLSCAVKGFYPSDIAVEWESNGQPENNYKTTPPVLDSDGSFFLVSKLTVDKSRWQQGNVFSCSVMHEALHNRFTQKSLSLSPG
heavy 2: QVQLQQPGAELVKPGTSVKLSCKASGYTFTNYYMYWVKQRPGQGLEWIGGINPSNGGTNFNEKFKNKATLTVDSSSSTTYMQLSSLTSEDSAVYYCTRRDYRFDMGFDYWGQGTTLTVSSASTKGPSVFPLAPSSKSTSGGTAALGCLVKDYFPEPVTVSWNSGALTSGVHTFPAVLQSSGLYSLSSVVTVPSSSLGTQTYICNVNHKPSNTKVDKKV[in this place human IgG1 Fc with changes]GGGGSGGGGSGGGGDCDIEGKDGKQYESVLMVSIDQLLDSMKEIGSNCLNNEFNFFKRHICDANKEGMFLFRAARKLRQFLKMNSTGDFDLHLLEVSEETTILLNCTGQVKGRKPAALGEAQPTKSLEENKSLKEQKKLNDLCFLKRLLQEIKTCWNKILMGTKEH
B2: PD1(alt)-IL7wt (other)
light: B1 light
heavy 1: B1 heavy 1
heavy 2: QVQLQQPGAELVKPGTSVKLSCKASGYTFTNYYMYWVKQRPGQGLEWIGGINPSNGGTNFNEKFKNKATLTVDSSSSTTYMQLSSLTSEDSAVYYCTRRDYRFDMGFDYWGQGTTLTVSSASTKGPSVFPLAPSSKSTSGGTAALGCLVKDYFPEPVTVSWNSGALTSGVHTFPAVLQSSGLYSLSSVVTVPSSSLGTQTYICNVNHKPSNTKVDKKV[in this place human IgG1 Fc with changes]GGGGSGGGGSGGGGDCDIEGKDGKQYESVLMVSIDQLLDSMKEIGSNCLNNEFNFFKRHICDANKEGMFLFRAARKLRQFLKMNSTGDFDLHLLKVSEGTTILLNCTGQVKGRKPAALGEAQPTKSLEENKSLKEQKKLNDLCFLKRLLQEIKTCWNKILMGTKEH
B3: PD1(alt)-IL7-VAR21 (other)
light: B1 light
heavy 1: B1 heavy 1
heavy 2: QVQLQQPGAELVKPGTSVKLSCKASGYTFTNYYMYWVKQRPGQGLEWIGGINPSNGGTNFNEKFKNKATLTVDSSSSTTYMQLSSLTSEDSAVYYCTRRDYRFDMGFDYWGQGTTLTVSSASTKGPSVFPLAPSSKSTSGGTAALGCLVKDYFPEPVTVSWNSGALTSGVHTFPAVLQSSGLYSLSSVVTVPSSSLGTQTYICNVNHKPSNTKVDKKV[in this place human IgG1 Fc with changes]GGGGSGGGGSGGGGDCDIEGKDGKQYESVLMVSIDQLLDSMKEIGSNCLNNEFNFFKRHICDANKEGMFLFRAARKLRQFLKMNSTGDFDLHLLKVSEETTILLNCTGQVKGRKPAALGEAQPTKSLEENKSLKEQKKLNDLCFLKRLLQEIKTCWNKILMGTKEH

Target: T1, IL-7 receptor (IL-7Ra/common gamma …)
Test: cell-based or functional assay

| Binder | Fold reduction in potency as EC50 [PD1^+] / EC50 [PD1^+ PD1(alt)-IL7wt] [fold] |
| --- | --- |
| B1 | 81.2 |
| B2 | 1 |
| B3 | 7.5 |
